According to paper PMC12136788:
The other results are listed elsewhere or left out.

T1: UNK ZnF1-6 (called full-length) (human, UniProt Q9C0B0 30-357)
T1 sequence: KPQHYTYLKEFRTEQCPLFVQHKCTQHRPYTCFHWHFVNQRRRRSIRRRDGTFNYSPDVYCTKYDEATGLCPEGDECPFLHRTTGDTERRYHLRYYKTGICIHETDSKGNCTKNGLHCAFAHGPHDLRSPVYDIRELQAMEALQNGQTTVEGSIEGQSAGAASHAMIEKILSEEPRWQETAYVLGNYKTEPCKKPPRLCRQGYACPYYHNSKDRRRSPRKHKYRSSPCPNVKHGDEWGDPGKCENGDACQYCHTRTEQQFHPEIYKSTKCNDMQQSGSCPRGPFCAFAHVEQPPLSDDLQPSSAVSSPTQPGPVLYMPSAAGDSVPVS

B1: ENSG00000107863:be:win_701|CDS|ENSG00000107863|bound_else_gene|NA|bound_elsewhere_windowed (ssRNA)
RNA: GGGAGUUCUACAGUCCGACGAUCCACCAGUACUGACACAACCUGGUAGGGCCUAUAGAAUGGAAAUACAAGUGCCUCCAUCACCAACAGAUGUUGCAAAAUCAAACACAGCAGUGUGUGUUUGCAAUGAAAGUGUAAGGACUGCAACAGAGGAUUGAGCAUCA
B2: ENSG00000198589:be:win_5001|CDS|ENSG00000198589|bound_else_gene|NA|bound_elsewhere_windowed (ssRNA)
RNA: GGGAGUUCUACAGUCCGACGAUCACCGUCAGUUUCAGUUUCAAAAAACGUCAAUGUGAAAGACAUUCUCCGAAGCUUGGUUAACAUACCAGCAGAUGGAGUCACAGUGGAUCCUGCCCUUCUGCCACCAGCCUGCCUUGGAGCCAACAGAGGAUUGAGCAUCA
B3: chr1:235113809:235113910:-|CDS|ENSG00000173726|msi1_unk|FALSE|overlapping (ssRNA)
RNA: GGGAGUUCUACAGUCCGACGAUCAGGCUUUUCAGGUUACAUGUAAUUUUAUGUAAAUCUUACAGGUGAAUAUGAGAAGGGCGUAGACCAUCUGACAAAUGCAAUUGCUGUGUGUGGACAGCCACAGCAGUUACUGCAGGUCUUCAACAGAGGAUUGAGCAUCA
B4: chr7:40094668:40094770:+|CDS|ENSG00000065883|unk|total|mutant (ssRNA)
RNA: GGGAGUUCUACAGUCCGACGAUCGGAUAUGGAGACAUUUACCUCAAUGCUGGUCCCAUGUUGUUCCGUGGAGACAAGGACCACCGAUUUGAAUACCGCCAUGGUCCUAUUGCAGUCCUGGCAAACAGCAGUGACCCUUCCACGCAACAGAGGAUUGAGCAUCA
B5: chr10:50305585:50307321:-|three_prime_utr|ENSG00000198964|control|control|control (ssRNA)
RNA: GGGAGUUCUACAGUCCGACGAUCUGAAAAGAAUGUCCAAGGAAUUGUACCUCGAUCUUACCAUUGGCCUUUCCCCUGGCCAGUAGUCCACCUCAGUAGGCAAGUUAAAUACAGCCGGCUGGUGAAUGACACAUAACAGCUGUACAACAGAGGAUUGAGCAUCA
B6: chr2:30158716:30158817:+|CDS|ENSG00000119801|msi1|FALSE|bound_elsewhere (ssRNA)
RNA: GGGAGUUCUACAGUCCGACGAUCGUUUGCCACUGAAGACAGCCAGCGAUAUAAGGAAGGCCGCGUGAUCCUGGAACGUGCUCUAGUUCGAGAGAGUGAGGGCUUUGAGGAGCAUGUACCAUCUGAUAACUCUUGAAGAUACAGCAACAGAGGAUUGAGCAUCA
B7: ENSG00000134243:stop:overlap|stop_codon|ENSG00000134243|stop_codon|NA|stop_codon (ssRNA)
RNA: GGGAGUUCUACAGUCCGACGAUCCAGCCUCCCACACUAAUAAAAGUGGUUAUCAUGAUGACUCAGAUGAGGACCUCUUGGAAUAGCUCUUCAGAGGAGCUGGACCCAGCAUGGAUGGUGGAACCACAGUACCUCUUACACUCCCAACAGAGGAUUGAGCAUCA
B8: chr3:52708059:52708100:+|3pUTR|ENSG00000114902|msi1_unk|FALSE|overlapping (ssRNA)
RNA: GGGAGUUCUACAGUCCGACGAUCACACAAGUAUGAAGUUUCUUUCAGGUGUAAAUAAUGAAAAAUAAAUGCCUCAUAAAUGAUAGUACAAUGUAACUAUCAAAGUUUUAUAAUUCAUUAUGAGUUAACCAUUUUAAUGUUUCCCAACAGAGGAUUGAGCAUCA
B9: chr16:11691289:11692082:-|CDS|ENSG00000153066|control|control|control (ssRNA)
RNA: GGGAGUUCUACAGUCCGACGAUCCCAAGCUCCGUUCCUCACAUUGAGGAGAACAGGUAUCUCUUUCCAGAAGUGGACAUGACUAGCACAAACUUCACAGGCCUGAGCUGCAGAACCAACAAGACUCUCAACAUCUACCUUUUGCAACAGAGGAUUGAGCAUCA
B10: chr10:37831617:37833116:-|CDS|ENSG00000198105|control|control|control (ssRNA)
RNA: GGGAGUUCUACAGUCCGACGAUCCAUCAGAGGACUCACACAGGGGAGAAGCCGUAUGAGUGUAAUGCAUGUGGGAAGACCUUUAGUCAGAGGUCAGUGCUCACCAAACAUCAGAGAAUUCACACAAGGGUGAAAGCUCUUUCACAACAGAGGAUUGAGCAUCA
B11: chr16:2602459:2602560:+|3pUTR|ENSG00000140992|msi1|total|mutant (ssRNA)
RNA: GGGAGUUCUACAGUCCGACGAUCAACUAUGUACAGAGAACUUUUUACAAAAGGCAGACCUUUUUUAAGCUGUGUAACCCACACCGCCUAACCACCUGGCAGAAUGACUACGAACCGGGGUCAUUGUGCUGGUAAAAGCCUCUACAACAGAGGAUUGAGCAUCA
B12: chr16:70532473:70532607:+|CDS|ENSG00000189091|unk|FALSE|bound_elsewhere (ssRNA)
RNA: GGGAGUUCUACAGUCCGACGAUCCAAUGAUCCAACAGGGGAAGCAGCAGCUAAUACCCAGCAGACACUUACUUUCUAUGAGCUAGACCUUGGUUUAAAUCAUGUGGUCCGAAAAUACAGUGAACCUUUGGAGGAACACGGCAACAACAGAGGAUUGAGCAUCA
B13: chr5:96979339:96979440:+|CDS|ENSG00000113441|unk|FALSE|bound_elsewhere (ssRNA)
RNA: GGGAGUUCUACAGUCCGACGAUCGAGGAGGAUGAAGAGGAUUAUGAGUCAUCAGCAAAGCUGCUGGGCAUGUCCUUCAUGAAUAGAAGCUCAGGCCUUCGGAACAGUGCAACUGGUUACAGGCAGAGCCCAGAUGGGGCUUGUCAACAGAGGAUUGAGCAUCA
B14: chr12:96953524:96953626:+|3pUTR|ENSG00000139350|unk|total|mutant (ssRNA)
RNA: GGGAGUUCUACAGUCCGACGAUCCUUUUUUAAAAAAAUAAAUACACAUAAUGUAUAUUAAAAGAGGUGGGAUGAAAUAAUUUCCGUAAUUAUGUGUACAGAUGAAACAUUUUUGUCAUGGAAUUUAAAAGCUAAGUAAGUAUACAACAGAGGAUUGAGCAUCA

The binders below were run against T1, UNK ZnF1-6 (called full-length) (assay: nsRBNS (natural sequence RNA bind-n-seq); RBNS binding buffer (assumed for nsRBNS): 25 mM Tris pH 7.5, 150 mM KCl, 3 mM MgCl2, 0.01% Triton X-100, 500 ug/ml BSA, 20 U/ml SUPERase-In, 4 C; UNK is unkempt and MSI1 is Musashi-1; names of the RNAs are library labels; protein concentration not given here; high values mean tight binding).

Row | Binder | binding signal [enrichment R]
1 | B1 | 0.78
2 | B2 | 0.467
3 | B3 | 0.397
4 | B4 | 0.502
5 | B5 | 0.47
6 | B6 | 0.666
7 | B7 | 0.871
8 | B8 | 0.575
9 | B9 | 0.724
10 | B10 | 0.611
11 | B11 | 0.423
12 | B12 | 0.528
13 | B13 | 0.686
14 | B14 | 0.869
